# The other results are listed elsewhere or left out.
# Legend:
# Experiment in all cases: glycan array binding signal (z-score within array); higher = stronger binding
# Conditions in all cases: glycan notation: IUPAC condensed, linker removed
# [1] = biological target: Gal3S(b1-3)[Fuc(a1-4)]GlcNAc
# In short: (§1)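 Glycan array binding is given as a within-array Z-score, which can be read as non-binding when negative. The arrays, 3228 of them, came from the Consortium for Functional Glycomics database and were retained only where the protein sequence was available. Z-scores were averaged across arrays of the same protein sequence at different concentrations or buffers and across linkers.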
# Gal3S(b1-4)Glc = biological target: Gal3S(b1-4)Glc
# In short: as §1
# Gal3S(b1-4)Glc6S = biological target: Gal3S(b1-4)Glc6S
# In short: as §1
# Gal3S(b1-4)GlcNAc = biological target: Gal3S(b1-4)GlcNAc
# In short: as §1
# [2] = biological target: Gal3S(b1-4)[Fuc(a1-3)]Glc6S
# In short: as §1
# [3] = biological target: Gal3S(b1-4)[Fuc(a1-3)]GlcNAc
# In short: as §1
# [4] = biological target: Gal3S(b1-4)[Fuc(a1-3)]GlcNAc6S
# In short: as §1
# Gal3S4S(b1-4)GlcNAc = biological target: Gal3S4S(b1-4)GlcNAc
# In short: as §1
# Gal3S6S(b1-4)GlcNAc = biological target: Gal3S6S(b1-4)GlcNAc
# In short: as §1
# Gal3S6S(b1-4)GlcNAc6S = biological target: Gal3S6S(b1-4)GlcNAc6S
# In short: as §1
# Gal4S(b1-4)GlcNAc = biological target: Gal4S(b1-4)GlcNAc
# In short: as §1
# Gal4S6S(b1-4)GlcNAc = biological target: Gal4S6S(b1-4)GlcNAc
# In short: as §1
# Gal6P(b1-4)GlcNAc = biological target: Gal6P(b1-4)GlcNAc
# In short: as §1
# Gal6S(b1-3)GlcNAc = biological target: Gal6S(b1-3)GlcNAc
# In short: as §1
# Gal6S(b1-3)GlcNAc6S = biological target: Gal6S(b1-3)GlcNAc6S
# In short: as §1
# Gal6S(b1-4)Glc = biological target: Gal6S(b1-4)Glc
# In short: as §1
# Gal6S(b1-4)Glc6S = biological target: Gal6S(b1-4)Glc6S
# In short: as §1
# Gal6S(b1-4)GlcNAc = biological target: Gal6S(b1-4)GlcNAc
# In short: as §1
# Gal6S(b1-4)GlcNAc6S = biological target: Gal6S(b1-4)GlcNAc6S
# In short: as §1
# GalNAc(a1-3)Gal = biological target: GalNAc(a1-3)Gal
# In short: as §1
# GalNAc(a1-3)GalNAc = biological target: GalNAc(a1-3)GalNAc
# In short: as §1
# [5] = biological target: GalNAc(a1-3)GalNAc(b1-3)Gal(a1-4)Gal(b1-4)Glc
# In short: as §1
# [6] = biological target: GalNAc(a1-3)GalNAc(b1-3)Gal(a1-4)Gal(b1-4)GlcNAc
# In short: as §1
# GalNAc(b1-3)Gal = biological target: GalNAc(b1-3)Gal
# In short: as §1
# [7] = biological target: GalNAc(b1-3)Gal(a1-4)Gal(b1-4)GlcNAc
# In short: as §1
# [8] = biological target: GalNAc(b1-3)Gal(a1-4)Gal(b1-4)GlcNAc(b1-3)Gal(b1-4)Glc
# In short: as §1
# [9] = biological target: GalNAc(b1-3)Gal(a1-6)Gal(b1-4)Glc
# In short: as §1
# GalNAc(b1-3)GalNAc = biological target: GalNAc(b1-3)GalNAc
# In short: as §1
# GalNAc(b1-3)GlcNAc = biological target: GalNAc(b1-3)GlcNAc
# In short: as §1
# GalNAc(b1-4)Gal(b1-4)Glc = biological target: GalNAc(b1-4)Gal(b1-4)Glc
# In short: as §1
# GalNAc(b1-4)GlcNAc = biological target: GalNAc(b1-4)GlcNAc
# In short: as §1
# [10] = biological target: GalNAc(b1-4)GlcNAc(b1-2)Man
# In short: as §1
# [11] = biological target: GalNAc(b1-4)GlcNAc(b1-2)Man(a1-3)[GalNAc(b1-4)GlcNAc(b1-2)Man(a1-6)]Man(b1-4)GlcNAc(b1-4)GlcNAc
# In short: as §1
# [12] = biological target: GalNAc(b1-4)GlcNAc(b1-3)GalNAc(b1-4)GlcNAc
# In short: as §1
# GalNAc(b1-4)GlcNAc6S = biological target: GalNAc(b1-4)GlcNAc6S
# In short: as §1
# GalNAc(b1-6)GalNAc = biological target: GalNAc(b1-6)GalNAc
# In short: as §1
# GalNAc3S(b1-4)GlcNAc = biological target: GalNAc3S(b1-4)GlcNAc
# In short: as §1
binder,measurement,setting,value
"AT1G73650(15) (Arabidopsis thaliana), F4HRY1 (protein) MGTVLDSHFLALTAIVTVIYQFIFFVITALFKFDQVTDFAGSTNFVILAVLTLVLKASWHFRQIVLTLLVVVWGLRLGIFLLMETRILQWGEDRRFDEQRGNIVRLIIFWTLQAVWVWTVSLPLTLVNASDGGGSLKPADVIGWTMETWVFGFLIEAAADQQKLSFKNSPENRGKWCDVGVWKYSRHPNYFGEMETLLWWGIFVAASPVLEGAEYLVIFGPLFLTLLLLFVSGIPLLEASADKKHGNSGAYRSYKKTTSPLILFPRGVYGNLPGWFKTVFLFEFPFYSRNLPQEGRLQNSKEKEVKDD",glycan array binding signal (z-score),[1],-0.032
same,glycan array binding signal (z-score),Gal3S(b1-4)Glc,-0.122
same,glycan array binding signal (z-score),Gal3S(b1-4)Glc6S,0.9
same,glycan array binding signal (z-score),Gal3S(b1-4)GlcNAc,-0.425
same,glycan array binding signal (z-score),[2],0.491
same,glycan array binding signal (z-score),[3],0.451
same,glycan array binding signal (z-score),[4],1.88
same,glycan array binding signal (z-score),Gal3S4S(b1-4)GlcNAc,1.83
same,glycan array binding signal (z-score),Gal3S6S(b1-4)GlcNAc,-0.05
same,glycan array binding signal (z-score),Gal3S6S(b1-4)GlcNAc6S,0.919
same,glycan array binding signal (z-score),Gal4S(b1-4)GlcNAc,-0.333
same,glycan array binding signal (z-score),Gal4S6S(b1-4)GlcNAc,-0.444
same,glycan array binding signal (z-score),Gal6P(b1-4)GlcNAc,-0.17
same,glycan array binding signal (z-score),Gal6S(b1-3)GlcNAc,0.589
same,glycan array binding signal (z-score),Gal6S(b1-3)GlcNAc6S,-0.282
same,glycan array binding signal (z-score),Gal6S(b1-4)Glc,0.597
same,glycan array binding signal (z-score),Gal6S(b1-4)Glc6S,2.51
same,glycan array binding signal (z-score),Gal6S(b1-4)GlcNAc,0.188
same,glycan array binding signal (z-score),Gal6S(b1-4)GlcNAc6S,-0.404
same,glycan array binding signal (z-score),GalNAc(a1-3)Gal,-0.091
same,glycan array binding signal (z-score),GalNAc(a1-3)GalNAc,-0.594
same,glycan array binding signal (z-score),[5],-0.41
same,glycan array binding signal (z-score),[6],-0.431
same,glycan array binding signal (z-score),GalNAc(b1-3)Gal,-0.641
same,glycan array binding signal (z-score),[7],1.52
same,glycan array binding signal (z-score),[8],-0.077
same,glycan array binding signal (z-score),[9],-0.625
same,glycan array binding signal (z-score),GalNAc(b1-3)GalNAc,-0.141
same,glycan array binding signal (z-score),GalNAc(b1-3)GlcNAc,1.4
same,glycan array binding signal (z-score),GalNAc(b1-4)Gal(b1-4)Glc,2.36
same,glycan array binding signal (z-score),GalNAc(b1-4)GlcNAc,4.01
same,glycan array binding signal (z-score),[10],-0.666
same,glycan array binding signal (z-score),[11],0.151
same,glycan array binding signal (z-score),[12],0.643
same,glycan array binding signal (z-score),GalNAc(b1-4)GlcNAc6S,-0.402
same,glycan array binding signal (z-score),GalNAc(b1-6)GalNAc,-0.297
same,glycan array binding signal (z-score),GalNAc3S(b1-4)GlcNAc,-0.255
